Data as given in US20200199244A1.

B1: 3h37-202-IgG4 (Fc fusion)
chain: EVQLLESGGGLVQPGGSLRLSCAASGFTFEWYEMQWVRRAPGKGLEWVSAISGDGWRTYYADSVKGRFTISRDNSKNTLYLQMNSLRAEDTAVYYCAKELGYFDYWGRGTLVTVSS[human IgG4 Fc with S228P (EU numbers) not given here]
B2: 3h37-202-IgG1* (Fc fusion)
chain: EVQLLESGGGLVQPGGSLRLSCAASGFTFEWYEMQWVRRAPGKGLEWVSAISGDGWRTYYADSVKGRFTISRDNSKNTLYLQMNSLRAEDTAVYYCAKELGYFDYWGRGTLVTVSS[human IgG1 Fc with changes not given here]
B3: 3h38-235-IgG4 (Fc fusion)
chain: EVQLLASGGGLVQPGGSLRLSCAASGFTFEEEEMIWVRQAPGKGLEWVSAISRNGYSTYYADSVKGRFTISRDNSKNTLYLQMNSLRAEDTAVYYCGKEPFRYDYWGQGTLVTVSS[human IgG4 Fc with S228P (EU numbers) not given here]
B4: 3h38-235-IgG1* (Fc fusion)
chain: EVQLLASGGGLVQPGGSLRLSCAASGFTFEEEEMIWVRQAPGKGLEWVSAISRNGYSTYYADSVKGRFTISRDNSKNTLYLQMNSLRAEDTAVYYCGKEPFRYDYWGQGTLVTVSS[human IgG1 Fc with changes not given here]
B5: 3h56-258-IgG4 (Fc fusion)
chain: EVQLLESGGGLVQPGGSLRLSCAASGFTFRDYEMWWVRQAPGKGLERVSAINPQGTRTYYADSVKGRFTISRDNSKNTLYLQMNSLRAEDTAVYYCAKLPFYFHEWGQGTLVTVSS[human IgG4 Fc with S228P (EU numbers) not given here]
B6: 3h56-258-IgG1* (Fc fusion)
chain: EVQLLESGGGLVQPGGSLRLSCAASGFTFRDYEMWWVRQAPGKGLERVSAINPQGTRTYYADSVKGRFTISRDNSKNTLYLQMNSLRAEDTAVYYCAKLPFYFHEWGQGTLVTVSS[human IgG1 Fc with changes not given here]

target: human CD40 (human) (UniProt P25942); experiment: cell-based or functional assay
Chain of UniProt P25942 (P25942 21-277 limits assumed): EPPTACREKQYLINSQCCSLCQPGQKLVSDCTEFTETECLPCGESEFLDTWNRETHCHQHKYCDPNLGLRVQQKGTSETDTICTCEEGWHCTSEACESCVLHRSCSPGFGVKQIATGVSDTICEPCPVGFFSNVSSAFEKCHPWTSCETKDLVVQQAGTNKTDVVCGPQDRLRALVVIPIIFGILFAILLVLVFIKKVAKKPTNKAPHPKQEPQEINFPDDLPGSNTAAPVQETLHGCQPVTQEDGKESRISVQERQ

Row | Binder | CHO-hCD40L-driven DC Activation IL-12 EC50 | CHO-hCD40L-driven Human B Cell Proliferation EC50 | T-B cell MLR EC50 | hIZCD40L-driven Human B Cell Proliferation EC50 | CHO-hCD40L-driven DC Activation IL-6 EC50 | CHO-hCD40L-driven DC Activation TNF EC50
1 | B1 | 0.53 nM | 5 nM and 3 nM | 5 nM and 6 nM | 0.16 nM | – | –
2 | B2 | 0.74 nM | 3 nM and 7 nM | – | 0.27 nM and 0.22 nM | – | –
3 | B3 | 0.67 nM | 6 nM and 10 nM | 16.7 nM | 0.2 nM and 0.15 nM | – | –
4 | B4 | 0.88 nM | 4 nM | – | 0.25 nM | – | –
5 | B5 | 0.3 nM | 1 nM | 2.4 nM | 0.16 nM | 0.11 nM | 0.22 nM
6 | B6 | 0.31 nM | 0.6 nM | 2 nM | 0.063 nM | – | –

Several values for one entry are separate records, joined by “and”; a condition that tells them apart may be missing. Identical values can stand only once.
